Assay results from the RNAGym collection of RNA variant scans (doi:10.7554/elife.90254).
The source gives no read counts; variants with many changes may rest on few reads.

B1: OR4K15 (parent)
chain: GUUAACGGUCAUAGGCCAUGGAAACUAGGAGCACCAUUUCGCUGCCAGUGAAGAAAUGAACAAAGAAAAUCUGGGCCAGGCAGGCAUCAAAAGAAAUAGUCUUGCGCUCAACCAGAAAGUCUGUAAUCAUUUUAAGGGUA

Variants of: B1
Assay: self-cleavage, relative activity (ratio to wild type); higher = more cleavage; in vitro, sequencing; the parent is a self-cleaving ribozyme

| Variant | self-cleavage |
| --- | --- |
| G28A U49A A91G U108C | 0.01 |
| A30G U49C A86C A129G | 0.18 |
| A27G C77U A95G | 1.48 |
| A27G A98U U120C | 1.29 |
| U26C U43A U57C A67G A111G | 0.04 |
| A30G C105U A129G | 0.13 |
| A30G U37C A47G | 1.36 |
| A30U A52G A68G | 1.62 |
| A30U A33G A55G U102C U132C | 1.87 |
| A30G U43C A63G A69G U72C A82G A118G | 0.18 |
| A27G U38C A59G | 1.73 |
| A30G U39C U122C | 1.14 |
| A30G U39C A110G | 0.11 |
| A30G C101U U103C | 0.15 |
| A30G C105U A134G | 0.15 |
| G28A A60G A64U A116G | 0.14 |
| A30G A59U A69G | 1.29 |
| G29A A78G A118G | 0.13 |
| A27G A55G A67G | 1.15 |
| G29A A54G A117G | 1.76 |
| A30G A36U A114C U139A | 0.03 |
| A27U U39C A60G U70C | 0.72 |
| A30U A56G A96G | 1.14 |
| A30G U49A A63G U97C U100C A111G | 0.02 |

| Variant | self-cleavage |
| --- | --- |
| A27U A91G U103C U130C | 0.36 |
| A30G C46A A56G A66U A82U A90G | 0.22 |
| A27G A30G A90G A118U | 0.7 |
| A27U A78G U103C A125G | 0.01 |
| A30G G50U A114U | 0.11 |
| A30G A68G A111G A116G | 0.02 |
| U26C A95G U108C | 0.01 |
| A30G G115U U127C | 0.02 |
| G29U A36G A56G C85A A86G | 0.88 |
| A30G A47G A67G U97C | 0.81 |
| A30G A67G U97A | 0.15 |
| U26C U37C U103C | 0.94 |
| U26C U43C A51U U131C | 0.94 |
| U26C U38A A59G A68G U87C A89C A114G A116G | 0.04 |
| A30G G123A G136A | 1.52 |
| G29A A51U U108C | 0.02 |
| A30G A52G A64G A114U | 0.15 |
| A30G A55G A117G U139C | 1.46 |
| A27G A55G C71U A114U U120C | 0.02 |
| A30U A33G U37C | 1.02 |
| A30G A66G A86G U120C U133A | 1.43 |
| G29A A52G U133C | 2.63 |
| A30G A90G U133C | 1.42 |
| A27U U37C U122C A129G U133C | 0.75 |

| Variant | self-cleavage |
| --- | --- |
| A27G U39C A52G | 0.95 |
| G28U A92G U100C A111G A117G A126C | 0.01 |
| U26G A64G A114G | 0.44 |
| A30G U49A A59G A67G A117G | 1.52 |
| A30G G41A A64U A82G | 0.17 |
| U26C U49C A64U A96G | 1.06 |
| A27G U87C U122C G137A | 0.49 |
| A30G A51U A66G | 1.78 |
| A27G A54U A114G | 0.6 |
| U26C G41A A68G | 2.03 |
| A27G U57C U124C | 0.49 |
| A27G U57C U124A | 0.75 |
| A27G U70A A95G | 1.39 |
| A27G A59C A140G | 1.19 |
| A27U A55G A90G | 1.1 |
| A30G U57C A60G A95G | 1.14 |
| A30U A51C A69G | 1.17 |
| A27G A47C A64G U70C | 0.63 |
| A30G C105U G106A U108C | 0.02 |
| A30G A129U U131C | 1.01 |
| A27U A64U A78G U108C | 0.03 |
| A27G A95G A116U | 0.54 |
| A30G A68G A89G A111G | 0.01 |
| A30G U38C A95G | 1.45 |

| Variant | self-cleavage |
| --- | --- |
| A27U A92G U120C A125G | 0.23 |
| A27U U38C C107A | 0.01 |
| A27U U38C A90G A126G | 1.8 |
| A27G U57C U103C | 0.05 |
| U26C C46U A94G | 1.49 |
| A27U A52G A94G A95G U108C | 0.01 |
| A30G G58A A64G | 0.82 |
| A30G A96G A98G U103C U122C | 0.03 |
| A27G C40U A96G A140C | 1.1 |
| A30G A94U A129G | 0.61 |
| A30G A55G U102A U132C | 0.2 |
| A27G A95G A98G A118G U122C U139C | 1.55 |
| A30G A52G U57A A118G | 0.24 |
| U26C U49C A54G A64G A91G U100C | 2.15 |
| A30U A52G A118G A126G | 0.82 |
| A27G A36G A126G U132C | 1.02 |
| A30G A63G U122C U130C | 0.89 |
| A30G A86G U87C A94G | 0.55 |
| A30G C46U A60G A66G A89U | 0.95 |
| A30G G84A A92G A111G | 0.01 |
| U26C A110G U122C U132A | 0.06 |
| A30G A90G C128U | 0.25 |
| A30G A62G A92G C113U | 0.05 |
| A30G A63G U120A | 1.68 |

| Variant | self-cleavage |
| --- | --- |
| A27U A30G U39A A47G A68C | 1.08 |
| U26G A55G A116G | 0.46 |
| A27G A63G A86G | 1.43 |
| G29U U57C A62G A78U A126G | 0.2 |
| G28A A56G A91U | 2.07 |
| U26C U87C C112U | 0 |
| A30C A52G U108C | 0.01 |
| U26C A134U U139C | 1.27 |
| A30G A52G A63G | 1.25 |
| G28A A33G A126U | 0.46 |
| A30G G50A A59G A68U | 1.45 |
| A30G U38C U39A A67C A94G | 1.1 |
| A30G U37C U43A A68G U132C | 1.56 |
| U26C G58U A96G U103C A125G | 0.14 |
| A30G A51G A82U | 0.11 |
| A30G A78U A118U U124C | 0 |
| A30G A33U A62G | 1.6 |
| A30G A47G A55G A96G U120C | 0.14 |
| A30G A51U A64G | 0.97 |
| A30G A135G U139A | 1.56 |
| A30G A60G U100A U102C A118G | 1.46 |
| A30G U38C A54G | 1.46 |
| A30G A54G A89U | 1.21 |
| A27U A59U A91G A125G | 0.47 |

| Variant | self-cleavage |
| --- | --- |
| A30G U39A A116G A117G | 1.14 |
| A30G A96G A126C | 0.58 |
| A30G C35U A55G U103A A129G | 0.09 |
| A30G A86U A98G U108C A140C | 0.01 |
| A30G A94U A98G U124C | 0.47 |
| A30G A66G G119A | 2.06 |
| A30C A90G A118G | 0.72 |
| G28A A78G U122C | 0.06 |
| A30G A82G U103A U122C | 0.08 |
| A27G A52G A54G U124A A129G | 0.48 |
| U26C U38A A98G | 0.79 |
| A30G A69G U70C A82G U102A A117G | 0.09 |
| A30G A68G A89G A91G | 0.62 |
| A30G A114U G138A | 0.09 |
| G28U U39G C113U | 0.03 |
| A27G U39C A55U A117C | 0.24 |
| A27U A66G A86U U120A | 1.97 |
| A30G U38C A51G A54C A64G U100C A114G U131A | 0.99 |
| A27G U49C U130C A134G | 1.31 |
| A30G A52G U70C A125G | 0.16 |
| A30G A56G U122C | 0.51 |
| G29A A78G A114U | 0.02 |
| A30G C32A U57C U122A | 1.13 |
| A30G U97A A114G | 0.74 |

| Variant | self-cleavage |
| --- | --- |
| G29U G53A A67U | 1.89 |
| U26C G75C U130C | 0.08 |
| A30G A69G U103G | 0.03 |
| A30G G50U A94G U132C | 1.02 |
| A30U A36G U38C | 2.1 |
| G29U A47U A92G A96G | 0.81 |
| U26C G48A U49A | 1.53 |
| A30G U38C A117G | 0.86 |
| A27G U43C A54G A60G A82U | 0.13 |
| A30G U39A A92G A114G | 0.53 |
| A27G A59G A82G | 0.55 |
| U26C C40U U43A A51G U100C | 1.56 |
| A27G A54G A78C | 0.28 |
| A30G A63G A114G | 0.5 |
| A27G A52G A54G A62G | 0.9 |
| U26C A96G A118G | 1.25 |
| A30G U37G U97C U100C | 2.13 |
| A30G C61U U122C | 1.49 |
| A27U U43C A67G U72C U87A A96G U132G U139A | 0.15 |
| A30G A51G U87C A118G A140C | 1.08 |
| A27G A36U G75C A114G A118G | 0.02 |
| G29A U38A A54U A68G A96G C105U | 0.27 |
| A30G A96G A135G | 1.82 |
